# Laboratory results taken from article PMC5892938.
# This is one part of the list. At the low end of the ranking, values are background and their order means little.
# Target: GST-SBP-SLBP (stem-loop binding protein) (UniProt Q14493)
# Assay: targeted RNA Bind-n-Seq;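 further: DESeq read counts versus GST-SBP nonspecific binding control pulldown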
# Conditions: RBNS binding buffer: 25 mM Tris pH 7.5, 150 mM KCl, 3 mM MgCl2, 0.1% Tween, 0.5 mg/mL BSA, 1 mM DTT; 27 nM protein, 750 pM RNA pool; temperature not stated; high values mean tight binding
row,Sequence,binding signal (log2 fold change)
1,GGUCACGUCUCAAUCAACUCUUUCCCCAGGGAAAACCCUGGCAAUCUCAACAGCUCGCAGUCAAG,0.207
2,GGUCACGUCUCAAUCAACUCUUCGGAGGGGGGGAAAACCCCUUUACCCUCAAUCUCAACAGCUCGCAGUCAAG,0.453
3,GGUCACGUCUCAAUCAACUCUAUCUCCAGGGAAAUCCCUGGCAAUGUCAACAGCUCGCAGUCAAG,0.418
4,GGUCACGUCUCAAUCAACUCUAUCCCCAGGGAAACCCCUGGUUUAUUCAACAGCUCGCAGUCAAG,-0.04
5,GGUCACGUCUCAAUCAACUCACAAGAGGGGGGGAAAACCCCUUUGCCCUCACCAUCAACAGCUCGCAGUCAAG,0.258
6,GGUCACGUCUCAAUCAACUCUCAAGAGGGGGGGAAAACCCCUUUACCCUCACCUUCAACAGCUCGCAGUCAAG,-0.182
7,GGUCACGUCUCAAUCAACUCCCCAGAGGGGGGGAAAACCCCUUUACCCUCGUAUUCAACAGCUCGCAGUCAAG,-0.324
8,GGUCACGUCUCAAUCAACUCAUUCCCAGGAGUUUCCUCCUGCUUAUUCAACAGCUCGCAGUCAAG,0.0716
9,GGUCACGUCUCAAUCAACUCAUCCUCAGGAGUUUUCUCCUGUAUUCUCAACAGCUCGCAGUCAAG,0.136
10,GGUCACGUCUCAAUCAACUCUUUCUCAGGAGUUUACUCCUGCAUAUUCAACAGCUCGCAGUCAAG,-0.0652
11,GGUCACGUCUCAAUCAACUCUUCUUCAGGAGUUUUCUCCUGUUAUGUCAACAGCUCGCAGUCAAG,0.207
12,GGUCACGUCUCAAUCAACUCUCAAGAGGGGGGGAAAACCCCUUUGCCCUCGUAAUCAACAGCUCGCAGUCAAG,0.452
13,GGUCACGUCUCAAUCAACUCACAUGAGGGGGGGAAAACCCCUUUACCCUCCAAAUCAACAGCUCGCAGUCAAG,-0.566
14,GGUCACGUCUCAAUCAACUCAUUCUCAGGAGUUUUCUCCUGUUUACUCAACAGCUCGCAGUCAAG,-0.111
15,GGUCACGUCUCAAUCAACUCUACUUCCAGGGAAAUCCCUGGUAUACUCAACAGCUCGCAGUCAAG,0.0107
16,GGUCACGUCUCAAUCAACUCAAUCUCCAGGGAAAUCCCUGGCAAUGUCAACAGCUCGCAGUCAAG,-0.0757
17,GGUCACGUCUCAAUCAACUCCUUCGAGGGGGGGAAAACCCCUUUACCCUCAAAAUCAACAGCUCGCAGUCAAG,0.173
18,GGUCACGUCUCAAUCAACUCUUAAGAGGGGGGGAAAACCCCUUUGCCCUCACAAUCAACAGCUCGCAGUCAAG,0.135
19,GGUCACGUCUCAAUCAACUCAUCGUCAGGAGUUUACUCCUGCUAACUCAACAGCUCGCAGUCAAG,0.304
20,GGUCACGUCUCAAUCAACUCCUACGAGGGGGGGAAAACCCCUUUGCCCUCAAUAUCAACAGCUCGCAGUCAAG,0.0313
21,GGUCACGUCUCAAUCAACUCCAACGAGGGGGGGAAAACCCCUUUACCCUCUACAUCAACAGCUCGCAGUCAAG,0.0135
22,GGUCACGUCUCAAUCAACUCUUCGCCCAGGGAAAUCCCUGGUAUUUUCAACAGCUCGCAGUCAAG,-0.0922
23,GGUCACGUCUCAAUCAACUCACAAGAGGGGGGGAAAACCCCUUUACCCUCAACCUCAACAGCUCGCAGUCAAG,0.0386
24,GGUCACGUCUCAAUCAACUCAGUUUCCAGGGAAACCCCUGGCUUUCUCAACAGCUCGCAGUCAAG,-0.133
25,GGUCACGUCUCAAUCAACUCUUCGUCAGGAGUUUCCUCCUGUAUUUUCAACAGCUCGCAGUCAAG,0.184

row,Sequence,binding signal (log2 fold change)
1,GGUCACGUCUCAAUCAACUCCAAAGAGGGGGGGAAAACCCCUUUACCCUCACCGUCAACAGCUCGCAGUCAAG,-0.231
2,GGUCACGUCUCAAUCAACUCUUUCCCAGGAGUUUCCUCCUGCAUAUUCAACAGCUCGCAGUCAAG,-0.0724
3,GGUCACGUCUCAAUCAACUCAUCGCCCAGGGAAAUCCCUGGUAAUUUCAACAGCUCGCAGUCAAG,0.0535
4,GGUCACGUCUCAAUCAACUCUUUCCCCAGGGAAAGCCCUGGCAAACUCAACAGCUCGCAGUCAAG,0.0199
5,GGUCACGUCUCAAUCAACUCUAUUUCCAGGGAAAACCCUGGUUAAUUCAACAGCUCGCAGUCAAG,-0.0107
6,GGUCACGUCUCAAUCAACUCUUCUCCAGGAGUUUUCUCCUGCAUUCUCAACAGCUCGCAGUCAAG,-0.0846
7,GGUCACGUCUCAAUCAACUCAUUAGAGGGGGGGAAAACCCCUUUGCCCUCACACUCAACAGCUCGCAGUCAAG,-0.211
8,GGUCACGUCUCAAUCAACUCUUCCCCCAGGGAAAACCCUGGCUAUCUCAACAGCUCGCAGUCAAG,0.213
9,GGUCACGUCUCAAUCAACUCGUUUUCAGGAGUUUUCUCCUGCAUAUUCAACAGCUCGCAGUCAAG,-0.176
10,GGUCACGUCUCAAUCAACUCUUUCUCAGGAGUUUCCUCCUGCUAUCUCAACAGCUCGCAGUCAAG,0.0943
11,GGUCACGUCUCAAUCAACUCUACUUCCAGGGAAAUCCCUGGUUUAUUCAACAGCUCGCAGUCAAG,-0.26
12,GGUCACGUCUCAAUCAACUCAUCUUCCAGGGAAAGCCCUGGCUUUCUCAACAGCUCGCAGUCAAG,0.425
13,GGUCACGUCUCAAUCAACUCAAUCCCAGGAGUUUCCUCCUGUAAAGUCAACAGCUCGCAGUCAAG,0.0752
14,GGUCACGUCUCAAUCAACUCUAUUUCAGGAGUUUCCUCCUGCAAUUUCAACAGCUCGCAGUCAAG,0.0678
15,GGUCACGUCUCAAUCAACUCUACUCCAGGAGUUUUCUCCUGCUUUCUCAACAGCUCGCAGUCAAG,0.167
16,GGUCACGUCUCAAUCAACUCUUCCCCAGGAGUUUUCUCCUGCUAUCUCAACAGCUCGCAGUCAAG,0.0907
17,GGUCACGUCUCAAUCAACUCAUCCUCCAGGGAAAUCCCUGGUUAUUUCAACAGCUCGCAGUCAAG,0.0155
18,GGUCACGUCUCAAUCAACUCAUGUCCAGGAGUUUCCUCCUGUUAAUUCAACAGCUCGCAGUCAAG,0.168
19,GGUCACGUCUCAAUCAACUCAAUCUCAGGAGUUUACUCCUGUUAAUUCAACAGCUCGCAGUCAAG,0.123
20,GGUCACGUCUCAAUCAACUCUACAGAGGGGGGGAAAACCCCUUUACCCUCCACAUCAACAGCUCGCAGUCAAG,0.154
21,GGUCACGUCUCAAUCAACUCUACUUCAGGAGUUUCCUCCUGUAAAUUCAACAGCUCGCAGUCAAG,-0.0596
22,GGUCACGUCUCAAUCAACUCAAUCUCAGGAGUUUGCUCCUGCUUACUCAACAGCUCGCAGUCAAG,0.0138
23,GGUCACGUCUCAAUCAACUCUUCUUCAGGAGUUUACUCCUGCAUUCUCAACAGCUCGCAGUCAAG,0.0621
24,GGUCACGUCUCAAUCAACUCACAAGAGGGGGGGAAAACCCCUUUGCCCUCAUCAUCAACAGCUCGCAGUCAAG,-0.175
25,GGUCACGUCUCAAUCAACUCAAUCUCAGGAGUUUCCUCCUGCAUAGUCAACAGCUCGCAGUCAAG,-0.00463

row,Sequence,binding signal (log2 fold change)
1,GGUCACGUCUCAAUCAACUCUAUUCCCAGGGAAAACCCUGGUUUUUUCAACAGCUCGCAGUCAAG,-0.0575
2,GGUCACGUCUCAAUCAACUCAUCGCCAGGAGUUUUCUCCUGUUAUCUCAACAGCUCGCAGUCAAG,0.042
3,GGUCACGUCUCAAUCAACUCAAUUCCCAGGGAAAUCCCUGGCAUUUUCAACAGCUCGCAGUCAAG,-0.0589
4,GGUCACGUCUCAAUCAACUCUUCUCCCAGGGAAAGCCCUGGCAAACUCAACAGCUCGCAGUCAAG,0.187
5,GGUCACGUCUCAAUCAACUCUUCGUCAGGAGUUUUCUCCUGCUAUUUCAACAGCUCGCAGUCAAG,0.0646
6,GGUCACGUCUCAAUCAACUCAACUUCAGGAGUUUCCUCCUGUAUAUUCAACAGCUCGCAGUCAAG,-0.0274
7,GGUCACGUCUCAAUCAACUCAUCUCCCAGGGAAACCCCUGGUUAUUUCAACAGCUCGCAGUCAAG,-0.161
8,GGUCACGUCUCAAUCAACUCAUCGUCAGGAGUUUCCUCCUGCUUAUUCAACAGCUCGCAGUCAAG,0.143
9,GGUCACGUCUCAAUCAACUCAGUCCCAGGAGUUUUCUCCUGCAUUCUCAACAGCUCGCAGUCAAG,-0.0238
10,GGUCACGUCUCAAUCAACUCCCCAGAGGGGGGGAAAACCCCUUUACCCUCAUCGUCAACAGCUCGCAGUCAAG,0.0422
11,GGUCACGUCUCAAUCAACUCAUCUCCAGGAGUUUGCUCCUGCAUAUUCAACAGCUCGCAGUCAAG,0.0514
12,GGUCACGUCUCAAUCAACUCUUUCUCCAGGGAAAGCCCUGGCUAUUUCAACAGCUCGCAGUCAAG,0.155
13,GGUCACGUCUCAAUCAACUCUUUUCCCAGGGAAACCCCUGGUUUACUCAACAGCUCGCAGUCAAG,-0.027
14,GGUCACGUCUCAAUCAACUCUUCUCCCAGGGAAACCCCUGGCAUUCUCAACAGCUCGCAGUCAAG,0.304
15,GGUCACGUCUCAAUCAACUCAUCUUCCAGGGAAAACCCUGGUAUUUUCAACAGCUCGCAGUCAAG,0.0412
16,GGUCACGUCUCAAUCAACUCAACUCCAGGAGUUUACUCCUGUAUUUUCAACAGCUCGCAGUCAAG,-0.0849
17,GGUCACGUCUCAAUCAACUCUUCUCCCAGGGAAACCCCUGGCUAACUCAACAGCUCGCAGUCAAG,-0.13
18,GGUCACGUCUCAAUCAACUCUUCGUCCAGGGAAACCCCUGGCAAAUUCAACAGCUCGCAGUCAAG,0.0121
19,GGUCACGUCUCAAUCAACUCUUCGUCAGGAGUUUACUCCUGCAUUUUCAACAGCUCGCAGUCAAG,0.0339
20,GGUCACGUCUCAAUCAACUCAUUCUCAGGAGUUUUCUCCUGUUUUUUCAACAGCUCGCAGUCAAG,-0.205
21,GGUCACGUCUCAAUCAACUCAAUUCCCAGGGAAAUCCCUGGUUAAUUCAACAGCUCGCAGUCAAG,0.00888
22,GGUCACGUCUCAAUCAACUCAAUCCCCAGGGAAAACCCUGGUAUAUUCAACAGCUCGCAGUCAAG,0.0154
23,GGUCACGUCUCAAUCAACUCAUCGCCCAGGGAAAUCCCUGGUUAAUUCAACAGCUCGCAGUCAAG,-0.116
24,GGUCACGUCUCAAUCAACUCCAUCGAGGGGGGGAAAACCCCUUUGCCCUCAAAAUCAACAGCUCGCAGUCAAG,-0.00682
